Source: patent US20260273087A1, “LINKER AND USE THEREOF IN LIGAND DRUG CONJUGATE” (priority 2023, published 2026)

Assay: Plasma stability test, free drug (MMAE) release by LC-MS/MS
Type: in vitro ADME
Conditions: human plasma, 37° C.
Experimental: Free drugs were analyzed by LC-MS/MS.
The free drug standard was prepared as a 1 mg/mL stock solution in DMSO. The free drug stock solution was diluted in blank plasma matrix by gradient dilution to prepare a standard curve with concentrations ranging from 1.0 to 100 ng/mL, as well as QC samples at three concentration levels, namely 3.0 ng/mL (LQC), 40.0 ng/mL (MQC), and 75.0 ng/mL (HQC).
100 μL of each of the study sample, standard curve sample, and QC sample were mixed with acetonitrile. The samples were thoroughly mixed by vortex for 1 minute and centrifuged in a centrifuge at 12000 rpm for 5 minutes to precipitate proteins. The supernatant was transferred to a 96-well plate for LC-MS/MS analysis.
Data were acquired and analyzed using Chromeleon™ software.

Measured: MMAE release ratio (%)

B1: ADC-1D: "control ADC-1D"; control linker-payload conjugated with DB1001 (conjugate)
heavy: QVQLQQPGTEVVKPGASVKLSCKASGFTFPLYWMHWVRQRPGRGLEWIGRIIPIFGHTKYNEKFKNKATLTADESSSTAYMELRSLTSDDSAVYYCARGGYYYYPREGFLDYWGQGTSVTVSS[not shown - human IgG1 constant region]
light: DIVMTQSPASLSVSPGERASISCRSSQSVDYSGDSYMNWYQQKPGQSPRLLIYAASDRESGVPDRFSGSGSGTDFTLKISRVEEEDAGTYYCQQSREDPFTFGQGTKVDIKRTVAAPSVFIFPPSDEQLKSGTASVVCLLNNFYPREAKVQWKVDNALQSGNSQESVTEQDSKDSTYSLSSTLTLSKADYEKHKVYACEVTHQGLSSPVTKSFNRGEC
A (A < 1): 2 h | 8 h | 1 d | 4 d | 7 d

B2: ADC-2D: control ADC; "control linker-payload were conjugated with DB1001" (conjugate)
heavy: QVQLQQPGTEVVKPGASVKLSCKASGFTFPLYWMHWVRQRPGRGLEWIGRIIPIFGHTKYNEKFKNKATLTADESSSTAYMELRSLTSDDSAVYYCARGGYYYYPREGFLDYWGQGTSVTVSS[not shown - human IgG1 constant region]
light: DIVMTQSPASLSVSPGERASISCRSSQSVDYSGDSYMNWYQQKPGQSPRLLIYAASDRESGVPDRFSGSGSGTDFTLKISRVEEEDAGTYYCQQSREDPFTFGQGTKVDIKRTVAAPSVFIFPPSDEQLKSGTASVVCLLNNFYPREAKVQWKVDNALQSGNSQESVTEQDSKDSTYSLSSTLTLSKADYEKHKVYACEVTHQGLSSPVTKSFNRGEC
A (A < 1): 2 h | 8 h | 1 d | 4 d | 7 d
